The record followed here is paper PMC12136788.

The list shows a part of the results.

Sequences and labels used below:
B1: ENSG00000215021:stop:overlap|stop_codon|ENSG00000215021|stop_codon|NA|stop_codon (ssRNA)
RNA: GGGAGUUCUACAGUCCGACGAUCCUACAGAUGGUGAAUAUCUCCCUGCGAGUGUUGUCUCGACCCAAUGCUCAGGAGCUUCCUAGCAUGUACCAGCGCCUAGGGCUGGACUACGAGGAACGAGUGUUGCCGUCCAUUGUCAACCAACAGAGGAUUGAGCAUCA
B2: chr5:150657389:150657496:+|3pUTR|ENSG00000171992|unk|total|mutant (ssRNA)
RNA: GGGAGUUCUACAGUCCGACGAUCCUCUCUCUCUCUCUCACACACACACACACACACACACACACACACACACACACACACACCCGUCCGUGCCUUGGAUGAGGCGGGGCAGUGUGUAUAUGGACCCCUGGACUUGCUACCUUCCAACAGAGGAUUGAGCAUCA
B3: chr5:173956200:173956301:+|3pUTR|ENSG00000113742|unk|FALSE|unique (ssRNA)
RNA: GGGAGUUCUACAGUCCGACGAUCCCCCUUCCUCAACCUCUUCACGCUGGCAUGUCCUUUUGUAGCAGUCUGUAACUUAACUAUAGUAUAAUGAAAAGAAUGACCUAUAAUAUAGGUGUUUUGUAGAUUCUUGUGUCACUGCAACAACAGAGGAUUGAGCAUCA
B4: chr8:116854276:116854437:-|CDS|ENSG00000164754|unk|FALSE|bound_elsewhere (ssRNA)
RNA: GGGAGUUCUACAGUCCGACGAUCAGGAAGCUAAUUGUUGACAGUGUCAAAGAGUUGGAUAGCAAGACAAUUAGAGCCCAACUUAGUGAUUAUUCAGAUAUUGUUACUACUUUGGAUCUGGCACCGCCCACCAAGAAAUUGAUGCAACAGAGGAUUGAGCAUCA
B5: chr6:52500910:52501011:-|3pUTR|ENSG00000065308|msi1|FALSE|unique (ssRNA)
RNA: GGGAGUUCUACAGUCCGACGAUCUAAUAACUGCAAAUCGCAUGUUCAGCCAGCAGCCUCCUAAGCCCACCUUCCUCCCCCAUUAGAGAACACCCAUCCUAGGUGCUCUCCAGGCUGUGUCAUUGGCAGGGCUUCACAUGCAGGCAACAGAGGAUUGAGCAUCA
B6: chr21:43758806:43758907:+|3pUTR|ENSG00000160209|msi1|total|mutant (ssRNA)
RNA: GGGAGUUCUACAGUCCGACGAUCACUUUCUUAAUCCAGUUUUUCAAACUUCUCCCUGCCGACCGUAAGGAUGAAUUCCACAACCGGAUCCUUUUUAAAAUCGAUUUUAAAUUGUUGCCCCGUCCUGCCAAGGUUAUUAUGUGCCAACAGAGGAUUGAGCAUCA
B7: chr1:54043363:54043464:-|CDS|ENSG00000116209|msi1|FALSE|unique (ssRNA)
RNA: GGGAGUUCUACAGUCCGACGAUCCGCACAGAGCUUCAUAACCUCUUCAUGGACUUUUUAUCUUCAAGCCGAUGACGGAAAAAUAGUUAUAUUCCAGGUGACAACUGAGCUUCAUGGAUUCAUCUAAAUACUAACAACAGUAAACAACAGAGGAUUGAGCAUCA
B8: ENSG00000198589:be:win_601|CDS|ENSG00000198589|bound_else_gene|NA|bound_elsewhere_windowed (ssRNA)
RNA: GGGAGUUCUACAGUCCGACGAUCUAUGGUCCUGAUGCCUUUUUUAACUUUCCAGGAAAGAGUGCUGCAGCUAUUGCAUUACCUCCUAUAGCCAAAUGGCCAUACCAGAAUGGUUUUACAUUUCAUACAUGGCUUAGAAUGGAUCAACAGAGGAUUGAGCAUCA
B9: chr3:154315110:154315224:-|CDS|ENSG00000174953|unk|FALSE|unique (ssRNA)
RNA: GGGAGUUCUACAGUCCGACGAUCUCAGAGAACAAACUUGACAUCCAGGAAAAGAAGUUGAUAAAUCAAGAAAAAAAAAUGUUUAGAAUCAGGAACAGAUCAUAUAUUGACCGAGAUUCUGAGUAUCUCUUGCAAGAAAAUGAACAACAGAGGAUUGAGCAUCA
B10: chr12:24812577:24812678:-|3pUTR|ENSG00000060982|msi1|total|mutant (ssRNA)
RNA: GGGAGUUCUACAGUCCGACGAUCAUCCAAAGGAGCUUUUUCCUUAUUCUGUCAAGCAUUGAGAUCUUCUUCAGCUUUCAAUGCCGUUGCUAAAUACAAAUAAUGCUACCCGGCCGUGACUAAAUACCGCAAACACUUCAUCAGCAACAGAGGAUUGAGCAUCA
B11: chr5:139390591:139392033:-|three_prime_utr|ENSG00000228672|control|control|control (ssRNA)
RNA: GGGAGUUCUACAGUCCGACGAUCAGGGCGUGGUGUGGUGUGGUGUGUGGGUGUGUGUAUAUGUGUAUAUGCGGGCAAGCAAAUAGGGAAAGUGAGGCAUCCCUGGGCUUGUCCCCAGGAGCCGAUCAGAGGAGGUGCUGUGGCCAACAGAGGAUUGAGCAUCA
B12: chr22:39522180:39522281:+|CDS|ENSG00000128272|msi1|FALSE|bound_elsewhere (ssRNA)
RNA: GGGAGUUCUACAGUCCGACGAUCGCUUACGUUGCCAUGAUCCCUCAGUGCAUAAAGGAGGAAGACACCCCUUCAGAUAAUGAUAGUGGCAUCUGUAUGAGCCCAGAGUCCUAUCUGGGGUCUCCUCAGCACAGCCCCUCUACCCAACAGAGGAUUGAGCAUCA
B13: chr4:185586528:185586629:-|3pUTR|ENSG00000154556|msi1|total|mutant (ssRNA)
RNA: GGGAGUUCUACAGUCCGACGAUCAUCCAUAUGAUAUGUUGUACAUUUUAUGGAAAUGUAACCGAAUCUCACACAUUAUUUUACCGAAACCGAGUACAGAAGCAUCACAAGUAUUAAAGUUGGUUUCCGCAAGGAUCCGGAUUACAACAGAGGAUUGAGCAUCA
B14: chr22:29555535:29555644:-|3pUTR|ENSG00000184117|unk|FALSE|unique (ssRNA)
RNA: GGGAGUUCUACAGUCCGACGAUCUUCCUCAUCUCAAGGCCACCAGUCCCCAGUUAUCACCCUUGGAAAUCCUCUGUUUAGCUUAGUUGCACAAAAGGUAGUAUGUCCAGUGGCUAGAGGUGGGGUGGGAAGAGAGGAGGCCAGCAACAGAGGAUUGAGCAUCA
B15: chr17:57839567:57839672:-|3pUTR|ENSG00000181610|unk|total|mutant (ssRNA)
RNA: GGGAGUUCUACAGUCCGACGAUCGGGUUGUCACAAAGCUCAGUAUCAUGGUUUGACAGAAGCAGUUAUGUGAACUUUUAUGUCCGGACAUUACUAAAUAAAGAAUUCCCCCGCUGCUUAUAAAGUAAAUUUACUUUGAAUUGUCAACAGAGGAUUGAGCAUCA
B16: chr5:123575802:123575904:+|CDS|ENSG00000151292|unk|FALSE|unique (ssRNA)
RNA: GGGAGUUCUACAGUCCGACGAUCACCUGAGAACUUCUUAAUAGGACGACCAGGAAACAAAACCCAGCAAGUUAUUCACAUUAUAGAUUUUGGUUUGGCAAAGGAAUAUAUUGAUCCGGAGACAAAGAAACACAUACCAUACAGCAACAGAGGAUUGAGCAUCA
B17: chr2:227551976:227552087:+|CDS|ENSG00000173744|unk|FALSE|bound_elsewhere (ssRNA)
RNA: GGGAGUUCUACAGUCCGACGAUCUCCAUGAGCAUGCCCACAGGAUUCGGCACUCCUGCUCCCUACAGUCUUCCCACCAGCUUUAGUGGCAGCUUUCAGCAGCCUGCCUUUCCAGCCCAAGCAGCUUUCCCUCAACAGACAGCUCAACAGAGGAUUGAGCAUCA
B18: chr10:33178043:33178144:-|3pUTR|ENSG00000099250|msi1|FALSE|unique (ssRNA)
RNA: GGGAGUUCUACAGUCCGACGAUCAAAUUGGAUUGAGAAUGCCUUUUGUUUCCAGGAAAAUAUUGAUCACCAUGAAAGAAGAAUAGUUUUUUGUCCCCAGAGACAUUCAUUUAGUUGAUAUAAUCCUACCAGAAGGAAAGCACUCAACAGAGGAUUGAGCAUCA
B19: ENSG00000070961:be:win_1451|CDS|ENSG00000070961|bound_else_gene|NA|bound_elsewhere_windowed (ssRNA)
RNA: GGGAGUUCUACAGUCCGACGAUCGAAUGACAGUCGUUCAAGCUUACAUAAAUGAAAAACAUUAUAAAAAGGUUCCUGAACCAGAAGCUAUUCCACCAAAUAUUUUGUCCUAUCUUGUAACAGGAAUUUCUGUGAAUUGUGCUUCAACAGAGGAUUGAGCAUCA
B20: chr2:75053604:75053755:-|CDS|ENSG00000115353|control|control|control (ssRNA)
RNA: GGGAGUUCUACAGUCCGACGAUCCUGUGUGACUGUGCUGAUCUACUUCCUCCCCCUGCUGGUGAUUGGCUAUGCAUACACCGUAGUGGGAAUCACACUAUGGGCCAGUGAGAUCCCCGGGGACUCCUCUGACCGCUACCACGACAACAGAGGAUUGAGCAUCA
B21: chr2:24789727:24790410:-|three_prime_utr|ENSG00000184924|control|control|control (ssRNA)
RNA: GGGAGUUCUACAGUCCGACGAUCUUAAUAAGUUCAAGUGGGGAAGGUGGGAGAGCAGUAUUGUCUGGGGAUCAUUGCUCAAAUAGAAGAUUUGGUUAGACUCUCCUGUGGGGCUCAAGGAAACUCCCUUCCAGUCACUCGGGUCAACAGAGGAUUGAGCAUCA
B22: chrX:141908562:141908663:+|CDS|ENSG00000155495|unk|FALSE|unique (ssRNA)
RNA: GGGAGUUCUACAGUCCGACGAUCUCCUCGUUACGAAUUCCUGUGGGGUCCAAGAGCUCAUUCAGAAGUCAUUAAGAGGAAAGUAGUAGAGUUUUUGGCCAUGCUAAAGAAUACCGUCCCUAUUACCUUUCCAUCCUCUUACAACAACAGAGGAUUGAGCAUCA

In the assay the target is MSI1 full-length (mouse, UniProt Q61474 1-362). The experiment in a line: nsRBNS (natural sequence RNA bind-n-seq); RBNS binding buffer (assumed for nsRBNS): 25 mM Tris pH 7.5, 150 mM KCl, 3 mM MgCl2, 0.01% Triton X-100, 500 ug/ml BSA, 20 U/ml SUPERase-In, 4 C; UNK is unkempt and MSI1 is Musashi-1; names of the RNAs are library labels; protein concentration not given here; high values mean tight binding.
Sequence of UniProt Q61474 (Q61474 whole entry): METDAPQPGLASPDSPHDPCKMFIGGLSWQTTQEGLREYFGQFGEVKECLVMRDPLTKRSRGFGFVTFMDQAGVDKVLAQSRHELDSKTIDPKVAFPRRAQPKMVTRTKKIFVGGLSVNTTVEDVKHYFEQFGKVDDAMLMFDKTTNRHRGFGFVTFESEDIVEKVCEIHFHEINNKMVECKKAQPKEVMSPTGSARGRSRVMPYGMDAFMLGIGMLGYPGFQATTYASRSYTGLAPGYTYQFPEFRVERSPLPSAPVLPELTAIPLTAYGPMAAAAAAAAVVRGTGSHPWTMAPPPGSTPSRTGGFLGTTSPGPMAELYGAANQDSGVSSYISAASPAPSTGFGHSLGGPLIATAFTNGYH
With B1, the binding signal is 0.292 enrichment R.

B2: the binding signal was determined as 0.943 enrichment R.

Molecule B3 gave a binding signal of 7.35 enrichment R.

Molecule B4 came in with a binding signal of 1.07 enrichment R.

B5: the binding signal came out at 0.628 enrichment R.

With B6, the binding signal was 0.357 enrichment R.

Consider B7, for which the binding signal amounted to 0.672 enrichment R.

B8: the binding signal came to 0.279 enrichment R.

Take B9: the binding signal is 0.552 enrichment R.

B10: the binding signal was 0.203 enrichment R.

Molecule B11 yielded a binding signal of 0.676 enrichment R.

As for B12, the binding signal was determined as 0.532 enrichment R.

For B13, the binding signal was 0.725 enrichment R.

For the molecule B14, the binding signal came out at 4.79 enrichment R.

Regarding B15, the binding signal is 0.56 enrichment R.

For the molecule B16, the binding signal is 2.5 enrichment R.

Regarding B17, the binding signal was found to be 0.91 enrichment R.

Take B18: the binding signal amounted to 1.58 enrichment R.

On to B19, for which the binding signal stood at 0.328 enrichment R.

On to B20, for which the binding signal is 0.588 enrichment R.

In turn, B21 showed a binding signal of 0.626 enrichment R.

Take B22: the binding signal came out at 0.62 enrichment R.
